# Data from PubChem BioAssay AID686979 (National Center for Advancing Translational Sciences (NCATS), 2013).
# Hit rate of the full screen: of about 420,000 compounds, about 50,000 (12%) were called active. The inconclusive results got no clear call from the source; some entries with a clear call stand among them for comparison. The call rests on the fitted dose curve; in most records, active means well fitted inhibition curve with a large enough effect; inconclusive means small, poorly fitted or top-dose-only effect; inactive means flat fitted curve, though single readings scatter. No potency is given beside an inconclusive call; the fits are too rough.
# Assay: qHTS for Inhibitors of human tyrosyl-DNA phosphodiesterase 1 (TDP1): qHTS in cells in presence of CPT; further: nearly all actives have a fitted effect of over 55% in size
# Conditions: chicken DT40 Tdp1-/-;hTDP1 cells + 20 nM CPT, ATP luminescence, 48 h; activity change, negative = growth inhibition: at 46.2 µM (top of the series)
# Procedure, shortened: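 Chicken DT40 Tdp1-/- cells complemented with human TDP1, 400 cells/well, exposed to compounds plus 20 nM camptothecin for at least 48 h at 37 C; viability read as ATP content by CellTiter-Glo luminescence.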
# On the % scale 0 is the no-effect control and ±100 the full control effect; potency means the concentration at half of the fitted maximal effect; tags describe the fitted curve by direction and shape.
SMILES,Potency,"activity change, negative = growth inhibition"
O=C(Nc1ccc(Br)cc1)Nc1nc2c(s1)CCCCCC2,active: 14.6 µM,–
CC(C)=C1SC(N2CCN(c3ccc(Cl)cc3)CC2)=NC1=O,"inconclusive [inhibitor, single point]",–
Cc1cc(Cl)ccc1OC(C)c1nnc(N)s1 (stereo not drawn),"inconclusive [inhibitor, single point]",–
CCN(CC)S(=O)(=O)c1ccc2c(c1)N(CC(=O)Nc1cccc(C(C)=O)c1)C(=O)CO2,"inconclusive [inhibitor, single point]",–
O=C(c1cccs1)N1C[C@@H](O)[C@H](n2cc(-c3ccc(F)cc3)nn2)C[C@@H]1c1ccc(Cl)cc1,"inconclusive [inhibitor, single point]",–
Cc1cccc(N2CCN(C(=O)c3ccc(N4CCCC4=O)cc3)CC2C)c1 (stereo not drawn),"inconclusive [inhibitor, single point]",–
Cc1cccc(C(=O)n2nc(-c3ccco3)nc2NCc2ccccc2)c1,"inconclusive [inhibitor, partial curve, poor fit]",–
CCN1C(=O)CSc2ccc(C(=O)NCc3ccccc3)cc21,–,inactive: -26%
COc1ccc2c(c1)c(CC(=O)Nc1cccc(S(N)(=O)=O)c1)c(C)n2C(=O)c1ccc(Cl)cc1,"inconclusive [inhibitor, single point]",–
CCN(CC)C(=O)CN1C(=O)C2(OCC(C)(c3ccccc3)CO2)c2ccccc21 (stereo not drawn),"inconclusive [inhibitor, partial curve]",–
C/C(=N\NC(=O)c1nn(C)c(C)c1Br)c1ccc(NC(=O)c2ccccc2F)cc1,"inconclusive [inhibitor, single point]",–
CC(Cc1ccccc1)NC(=O)c1ccc([N+](=O)[O-])cc1 (stereo not drawn),"inconclusive [inhibitor, single point]",–
CCC(=O)N1c2ccccc2CC1C(=O)NCCCN1CCN(c2ccc(F)cc2)CC1 (stereo not drawn),"inconclusive [inhibitor, single point]",–
O=C(NNC(=O)c1cc(-c2ccccc2)n(-c2ccccc2)n1)c1cccc([N+](=O)[O-])c1,–,inactive: -18.6%
CCCN1C(=O)c2cc(C(=O)Nc3ccc(OC)c(OC)c3)ccc2C1Nc1ccc(OC)c(OC)c1 (stereo not drawn),–,inactive: -26.5%
CCOc1ccc(-c2cc(C(=O)NCCCn3ccnc3)c3ccccc3n2)cc1,"inconclusive [inhibitor, single point]",–
Cc1ccc(-n2ncc3c(NCCc4ccccc4)ncnc32)cc1Cl,"inconclusive [inhibitor, single point]",–
COc1cc(NC(=O)c2cc(-c3ccccc3Cl)on2)cc(OC)c1OC,active: 2.91 µM,–
Cc1cccc(NC(=O)c2cccc(NC(=O)c3ccccc3)c2)n1,active: 4.11 µM,–
Cc1ccc2nsnc2c1S(=O)(=O)N(Cc1cc2cccc(C)c2[nH]c1=O)CC1CCCO1 (stereo not drawn),"inconclusive [inhibitor, partial curve]",–
CCN(CC)CCNC(=O)CS(=O)Cc1nc(-c2ccc(C)cc2)oc1C (stereo not drawn),–,inactive: 0.434%
c1ccc(Cn2ccnc2SCc2nnc(-c3ccccc3)o2)cc1,"inconclusive [inhibitor, single point]",–
Cn1c(Cc2ccccc2)n[nH]c1=S,–,inactive: 3.21%

SMILES,Potency,"activity change, negative = growth inhibition"
C=C1CC(Cn2cc(Br)c(=O)[nH]c2=O)(c2ccc(-c3ccccc3)cc2)OC1=O (stereo not drawn),active: 0.0326 µM,–
Cc1cccc(Nc2n[nH]c(=S)s2)c1C,–,inactive: 15.1%
CCOC(=O)N1CCN(C(=O)CSc2nc(=O)n3ccc(C)cc3n2)CC1,"inconclusive [inhibitor, partial curve]",–
COc1cc(NC(=O)COC(=O)CC2CC3CCC2C3)cc(OC)c1 (stereo not drawn),"inconclusive [inhibitor, partial curve]",–
CC(C)(C)CC(=O)Nc1ccccc1N1CCN(c2ccccc2)CC1,"inconclusive [inhibitor, single point]",–
CN(C)S(=O)(=O)c1cc(NC(=O)CN2CCN(c3ccccc3O)CC2)ccc1Cl,"inconclusive [inhibitor, single point]",–
CCOc1ccc(-n2c(Cc3cc(=O)[nH]c(=O)[nH]3)nnc2SCC(=O)Nc2nnc(C)s2)cc1,–,inactive: 2.11%
O=C(NCc1ccccc1)C1CCCN1S(=O)(=O)c1ccc(Cl)cc1 (stereo not drawn),"inconclusive [inhibitor, single point]",–
O=C1CCCN1c1ccc(S(=O)(=O)N2CCCCC2)cc1[N+](=O)[O-],–,inactive: -7.65%
CC(C)C[C@H]1CNC(=O)C(=O)N1C[C@@H]1CCCN1C[C@H](Cc1ccccc1)N1C[C@H](Cc2ccccc2)N(CCc2ccccc2)C(=O)C1=O,"inconclusive [inhibitor, single point]",–
COc1cc(C(=O)N/N=C/c2cc([N+](=O)[O-])cs2)cc(OC)c1OC,active: 0.82 µM,–
COc1cc(NC(=O)[C@H]2CCCN2S(=O)(=O)c2cccc3cccnc23)cc(OC)c1OC,active: 14.6 µM,–
COc1ccc2c(c1)cc(C)c1nnc(SCC(=O)N(C)c3nc(-c4ccccc4)cs3)n12,"inconclusive [inhibitor, single point]",–
c1ccc(C(c2ccccc2)N2CCN(Cc3nnnn3C3CCCCC3)CC2)cc1,"inconclusive [inhibitor, single point]",–
COc1ccc(NCN2C(=O)CCC2=O)cc1,"inconclusive [inhibitor, single point]",–
CC1=C(C(=O)Nc2cccc(F)c2)C2(CCCCCC2)OC1=O,"inconclusive [inhibitor, single point]",–
COCCCNc1oc(-c2ccc(COc3ccccc3C)o2)nc1C#N,"inconclusive [inhibitor, single point]",–
Cc1ccc(Oc2ccc(S(=O)(=O)N3CCOCC3)cc2C(N)=O)c(-n2nc3ccccc3n2)c1,active: 3.66 µM,–
COc1cccc(OCCn2c(-c3ccc(Cl)cc3)nc3ccccc3c2=O)c1,–,inactive: -9.19%
CC1CCCN(c2c([N+](=O)[O-])c(=O)oc3ccccc23)C1 (stereo not drawn),active: 15.8 µM,–
Cc1nnc(N(Cc2ccco2)C(=O)c2cccc(C#N)c2)s1,"inconclusive [inhibitor, single point]",–
COc1ccc(CNC(=O)Cn2cnc3c(SC)nc(N)nc32)cc1,"inconclusive [inhibitor, single point]",–
COc1cccc(Cn2c(=O)n(-c3cc(C)cc(C)c3)c(=O)c3oc4ccccc4c32)c1,"inconclusive [inhibitor, single point]",–

SMILES,Potency,"activity change, negative = growth inhibition"
COc1ccc(OC)c(NC(=O)c2cc3n(n2)C(C(F)(F)F)CC(c2ccc4c(c2)OCO4)N3)c1 (stereo not drawn),"inconclusive [inhibitor, single point]",–
CC(=O)c1ccc(S(=O)(=O)N2CCN(C(=O)CCC3CCCC3)CC2)cc1,"inconclusive [inhibitor, single point]",–
Cc1ccc(-c2noc(CCC(=O)NC3CCN(Cc4ccccc4)CC3)n2)cc1,active: 13 µM,–
CCCCc1cc(=O)oc2cc(O)cc(O)c12,–,inactive: 2.73%
O=C(CCCSc1nc2ccccc2[nH]1)NC1CCCCC1,"inconclusive [inhibitor, single point]",–
CCc1ccc(C2=CC(c3cccc(OC)c3OC)n3c(nc4ccccc43)N2)cc1 (stereo not drawn),"inconclusive [inhibitor, single point]",–
CCOc1cc(CNC(=O)c2cc(-c3ccc(Cl)s3)nc3ccccc23)ccc1OC,"inconclusive [inhibitor, single point]",–
CCCC(=O)C1=C(N(C)c2ccccc2)CC(C)(C)CC1=O,"inconclusive [inhibitor, single point]",–
COc1ccc(Cl)cc1/C=C1/C(=O)ON=C1C,"inconclusive [inhibitor, single point]",–
COc1ccc(CCNC(=O)Cn2c(=O)cc(C(F)(F)F)c3c(C)nn(C)c32)c(OC)c1,"inconclusive [inhibitor, single point]",–
O=C(O)c1ccc(N=Nc2c(O)[nH]c3ccc(Br)cc23)cc1,"inconclusive [inhibitor, single point]",–
COc1cc(/C=C/C(=O)NC(C)(C)C)ccc1OCc1ccccc1,"inconclusive [inhibitor, single point]",–
COc1ccc([C@@]2(O)c3c(ccc(CC=C(C)C)c3O)NC(=O)[C@@H]2OC)cc1,–,inactive: -16.2%
O=C(NC(=S)Nc1ccccc1N1CCOCC1)c1ccc(-c2cccc(Cl)c2)o1,"inconclusive [inhibitor, single point]",–
COCCN1CCN(C(=O)c2cnn(-c3nccc(-c4ccco4)n3)c2C(C)C)CC1,–,inactive: 15.7% [at 9.04 µM]
O=C(CC1CC2CCC1C2)N1CCN(S(=O)(=O)c2ccccc2[N+](=O)[O-])CC1 (stereo not drawn),–,inconclusive: -32.8% [inhibitor]
COc1ccc(/C=C2\SC(=O)N(CCCC(=O)Nc3cc(Cl)ccc3C(=O)O)C2=O)cc1,–,inactive: 33%
O=C(Nc1ccc(Cl)cc1)c1cccs1,–,inactive: -23.1%
CCOc1ccc2nc(N/C(N)=N/C(=S)Nc3cccc(C)c3)nc(C)c2c1,active: 18.4 µM,–
O=C(CNc1cccc(S(=O)(=O)N2CCCCC2)c1)Nc1ccc(C(F)(F)F)cc1,"inconclusive [inhibitor, single point]",–
O=C(NCCCN1CCOCC1)c1cnccn1,–,inactive: -8.42%
CCN(CC)c1ccc(NC(=O)c2cccc(F)c2)c(C)c1,active: 4.61 µM,–
